Residue numbers refer to the chain shown, from its start. This is one part of the list.
T1: RBFOX1 RRM (Homo sapiens, UniProt Q9NWB1 109-208)
T1 sequence: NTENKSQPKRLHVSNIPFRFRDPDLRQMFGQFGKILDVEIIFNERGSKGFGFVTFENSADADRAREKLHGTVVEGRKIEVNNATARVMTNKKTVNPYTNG

B1: UGACUCU (DNA:RNA)
RNA: GGGAGACCGGAAUUCAGAUUGUCCUGACUCUUUAAAUCCCGUCGUAGCCACCA
DNA 1: CAATCTGAATTCCGGTCTCCC
DNA 2: TGGTGGCTACGACGGGATT
B2: UAUAUUC (DNA:RNA)
RNA: B1 RNA with G26A, A27U, C28A, C30U, U31C
DNA 1: CAATCTGAATTCCGGTCTCCC
DNA 2: TGGTGGCTACGACGGGATT
B3: GGCUUUC (DNA:RNA)
RNA: B1 RNA with U25G, A27C, C28U, C30U, U31C
DNA 1: CAATCTGAATTCCGGTCTCCC
DNA 2: TGGTGGCTACGACGGGATT
B4: CUGUAGU (DNA:RNA)
RNA: B1 RNA with U25C, G26U, A27G, C28U, U29A, C30G
DNA 1: CAATCTGAATTCCGGTCTCCC
DNA 2: TGGTGGCTACGACGGGATT
B5: GUUAUAC (DNA:RNA)
RNA: B1 RNA with U25G, G26U, A27U, C28A, C30A, U31C
DNA 1: CAATCTGAATTCCGGTCTCCC
DNA 2: TGGTGGCTACGACGGGATT
B6: GGCUGGG (DNA:RNA)
RNA: B1 RNA with U25G, A27C, C28U, U29G, C30G, U31G
DNA 1: CAATCTGAATTCCGGTCTCCC
DNA 2: TGGTGGCTACGACGGGATT
B7: AAAUAUC (DNA:RNA)
RNA: B1 RNA with U25A, G26A, C28U, U29A, C30U, U31C
DNA 1: CAATCTGAATTCCGGTCTCCC
DNA 2: TGGTGGCTACGACGGGATT
B8: AUGCGCC (DNA:RNA)
RNA: B1 RNA with U25A, G26U, A27G, U29G, U31C
DNA 1: CAATCTGAATTCCGGTCTCCC
DNA 2: TGGTGGCTACGACGGGATT
B9: CCGACGC (DNA:RNA)
RNA: GGGAGACCGGAAUUCAGAUUGUCCCCGACGCUUAAAUCCCGUCGUAGCCACCA
DNA 1: CAATCTGAATTCCGGTCTCCC
DNA 2: TGGTGGCTACGACGGGATT
B10: CCGCGUA (DNA:RNA)
RNA: B9 RNA with A28C, C29G, G30U, C31A
DNA 1: CAATCTGAATTCCGGTCTCCC
DNA 2: TGGTGGCTACGACGGGATT
B11: GCACACA (DNA:RNA)
RNA: B1 RNA with U25G, G26C, U29A, U31A
DNA 1: CAATCTGAATTCCGGTCTCCC
DNA 2: TGGTGGCTACGACGGGATT
B12: GAAGAUA (DNA:RNA)
RNA: B1 RNA with U25G, G26A, C28G, U29A, C30U, U31A
DNA 1: CAATCTGAATTCCGGTCTCCC
DNA 2: TGGTGGCTACGACGGGATT
B13: UGGCCGG (DNA:RNA)
RNA: B9 RNA with C25U, C26G, A28C, C31G
DNA 1: CAATCTGAATTCCGGTCTCCC
DNA 2: TGGTGGCTACGACGGGATT
B14: UCAAAAC (DNA:RNA)
RNA: B9 RNA with C25U, G27A, C29A, G30A
DNA 1: CAATCTGAATTCCGGTCTCCC
DNA 2: TGGTGGCTACGACGGGATT
B15: AUCGGCA (DNA:RNA)
RNA: B1 RNA with U25A, G26U, A27C, C28G, U29G, U31A
DNA 1: CAATCTGAATTCCGGTCTCCC
DNA 2: TGGTGGCTACGACGGGATT
B16: GUUGAUC (DNA:RNA)
RNA: B9 RNA with C25G, C26U, G27U, A28G, C29A, G30U
DNA 1: CAATCTGAATTCCGGTCTCCC
DNA 2: TGGTGGCTACGACGGGATT
B17: UCCGACA (DNA:RNA)
RNA: B1 RNA with G26C, A27C, C28G, U29A, U31A
DNA 1: CAATCTGAATTCCGGTCTCCC
DNA 2: TGGTGGCTACGACGGGATT
B18: AUGGCAC (DNA:RNA)
RNA: B9 RNA with C25A, C26U, A28G, G30A
DNA 1: CAATCTGAATTCCGGTCTCCC
DNA 2: TGGTGGCTACGACGGGATT
B19: CCCCGGG (DNA:RNA)
RNA: B9 RNA with G27C, A28C, C29G, C31G
DNA 1: CAATCTGAATTCCGGTCTCCC
DNA 2: TGGTGGCTACGACGGGATT
B20: GCCGACU (DNA:RNA)
RNA: B1 RNA with U25G, G26C, A27C, C28G, U29A
DNA 1: CAATCTGAATTCCGGTCTCCC
DNA 2: TGGTGGCTACGACGGGATT
B21: GUCGCUG (DNA:RNA)
RNA: B9 RNA with C25G, C26U, G27C, A28G, G30U, C31G
DNA 1: CAATCTGAATTCCGGTCTCCC
DNA 2: TGGTGGCTACGACGGGATT
B22: CCGGCUU (DNA:RNA)
RNA: B9 RNA with A28G, G30U, C31U
DNA 1: CAATCTGAATTCCGGTCTCCC
DNA 2: TGGTGGCTACGACGGGATT
B23: CUUAAAC (DNA:RNA)
RNA: B9 RNA with C26U, G27U, C29A, G30A
DNA 1: CAATCTGAATTCCGGTCTCCC
DNA 2: TGGTGGCTACGACGGGATT
B24: GAUGUAC (DNA:RNA)
RNA: B9 RNA with C25G, C26A, G27U, A28G, C29U, G30A
DNA 1: CAATCTGAATTCCGGTCTCCC
DNA 2: TGGTGGCTACGACGGGATT
B25: GCGUCUC (DNA:RNA)
RNA: B9 RNA with C25G, A28U, G30U
DNA 1: CAATCTGAATTCCGGTCTCCC
DNA 2: TGGTGGCTACGACGGGATT
B26: AGCCAAU (DNA:RNA)
RNA: B1 RNA with U25A, A27C, U29A, C30A
DNA 1: CAATCTGAATTCCGGTCTCCC
DNA 2: TGGTGGCTACGACGGGATT
B27: AGGAUCU (DNA:RNA)
RNA: B1 RNA with U25A, A27G, C28A
DNA 1: CAATCTGAATTCCGGTCTCCC
DNA 2: TGGTGGCTACGACGGGATT
B28: GGAGAUA (DNA:RNA)
RNA: B1 RNA with U25G, C28G, U29A, C30U, U31A
DNA 1: CAATCTGAATTCCGGTCTCCC
DNA 2: TGGTGGCTACGACGGGATT
B29: CAUCUUC (DNA:RNA)
RNA: B9 RNA with C26A, G27U, A28C, C29U, G30U
DNA 1: CAATCTGAATTCCGGTCTCCC
DNA 2: TGGTGGCTACGACGGGATT
B30: AAAUACG (DNA:RNA)
RNA: B1 RNA with U25A, G26A, C28U, U29A, U31G
DNA 1: CAATCTGAATTCCGGTCTCCC
DNA 2: TGGTGGCTACGACGGGATT
B31: AUAUGCU (DNA:RNA)
RNA: B1 RNA with U25A, G26U, C28U, U29G
DNA 1: CAATCTGAATTCCGGTCTCCC
DNA 2: TGGTGGCTACGACGGGATT

molecular target: T1, RBFOX1 RRM; assay: EMSA; HiTS-Eq, 1 nM pool, 10 min; buffer printed only for the single-RNA assays: 10 mM Tris pH 7.5, 150 mM NaCl, 3.4 mM EDTA, 0.001% NP-40, 30 C; details: tags: His6 N-terminal (pET28a); label: 5' 32P
Summary of the method: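 Purified RbFox RRM (wild type or mutant) was equilibrated for 10 min in 50 µL with 1 nM of a 5′-radiolabelled pool of RNA with 7 randomized nucleotides, its flanks annealed to DNA oligonucleotides, across increasing protein concentrations. Free RNA was separated by 8% native PAGE, excised, reverse-transcribed, PCR-barcoded and sequenced on an Illumina HiSeq 2500. Relative association constants came from read-count changes of each variant against the control reaction, normalised to the cognate motif.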

Binder	binding signal
B1	0.0132 KA relative to UGCAUGU
B2	0.00415 KA relative to UGCAUGU
B3	0.0152 KA relative to UGCAUGU
B4	0.011 KA relative to UGCAUGU
B5	0.00651 KA relative to UGCAUGU
B6	0.00742 KA relative to UGCAUGU
B7	0.000252 KA relative to UGCAUGU
B8	0.0101 KA relative to UGCAUGU
B9	0.00496 KA relative to UGCAUGU
B10	0.00752 KA relative to UGCAUGU
B11	0.00795 KA relative to UGCAUGU
B12	0.00918 KA relative to UGCAUGU
B13	0.0318 KA relative to UGCAUGU
B14	0.00177 KA relative to UGCAUGU
B15	0.00854 KA relative to UGCAUGU
B16	0.0229 KA relative to UGCAUGU

Binder	binding signal
B17	0.00816 KA relative to UGCAUGU
B18	0.0109 KA relative to UGCAUGU
B19	0.00595 KA relative to UGCAUGU
B20	0.0127 KA relative to UGCAUGU
B21	0.0207 KA relative to UGCAUGU
B22	0.0161 KA relative to UGCAUGU
B23	0.00387 KA relative to UGCAUGU
B24	0.016 KA relative to UGCAUGU
B25	0.00853 KA relative to UGCAUGU
B26	0.00281 KA relative to UGCAUGU
B27	0.016 KA relative to UGCAUGU
B28	0.0149 KA relative to UGCAUGU
B29	0.00151 KA relative to UGCAUGU
B30	0.00384 KA relative to UGCAUGU
B31	0.00817 KA relative to UGCAUGU

Source: article PMC9911399, “Two distinct binding modes provide the RNA-binding protein RbFox with extraordinary sequence specificity”
